Screen size: about 310,000 compounds; about 14,000 (4.5%) showed an effect of 50% or more. Effects have a minus sign here. The list shows a part of the results.
molecular target: human ether-à-go-go-related gene (hERG) potassium channel (human, UniProt Q12809); assay: primary screen, population patch clamp on CHO cells stably expressing hERG
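Further: peak tail current of the secondary pulse compared with the same well before compound.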

human ether-à-go-go-related gene (hERG) potassium channel, sequence (Q12809 whole entry, looked up): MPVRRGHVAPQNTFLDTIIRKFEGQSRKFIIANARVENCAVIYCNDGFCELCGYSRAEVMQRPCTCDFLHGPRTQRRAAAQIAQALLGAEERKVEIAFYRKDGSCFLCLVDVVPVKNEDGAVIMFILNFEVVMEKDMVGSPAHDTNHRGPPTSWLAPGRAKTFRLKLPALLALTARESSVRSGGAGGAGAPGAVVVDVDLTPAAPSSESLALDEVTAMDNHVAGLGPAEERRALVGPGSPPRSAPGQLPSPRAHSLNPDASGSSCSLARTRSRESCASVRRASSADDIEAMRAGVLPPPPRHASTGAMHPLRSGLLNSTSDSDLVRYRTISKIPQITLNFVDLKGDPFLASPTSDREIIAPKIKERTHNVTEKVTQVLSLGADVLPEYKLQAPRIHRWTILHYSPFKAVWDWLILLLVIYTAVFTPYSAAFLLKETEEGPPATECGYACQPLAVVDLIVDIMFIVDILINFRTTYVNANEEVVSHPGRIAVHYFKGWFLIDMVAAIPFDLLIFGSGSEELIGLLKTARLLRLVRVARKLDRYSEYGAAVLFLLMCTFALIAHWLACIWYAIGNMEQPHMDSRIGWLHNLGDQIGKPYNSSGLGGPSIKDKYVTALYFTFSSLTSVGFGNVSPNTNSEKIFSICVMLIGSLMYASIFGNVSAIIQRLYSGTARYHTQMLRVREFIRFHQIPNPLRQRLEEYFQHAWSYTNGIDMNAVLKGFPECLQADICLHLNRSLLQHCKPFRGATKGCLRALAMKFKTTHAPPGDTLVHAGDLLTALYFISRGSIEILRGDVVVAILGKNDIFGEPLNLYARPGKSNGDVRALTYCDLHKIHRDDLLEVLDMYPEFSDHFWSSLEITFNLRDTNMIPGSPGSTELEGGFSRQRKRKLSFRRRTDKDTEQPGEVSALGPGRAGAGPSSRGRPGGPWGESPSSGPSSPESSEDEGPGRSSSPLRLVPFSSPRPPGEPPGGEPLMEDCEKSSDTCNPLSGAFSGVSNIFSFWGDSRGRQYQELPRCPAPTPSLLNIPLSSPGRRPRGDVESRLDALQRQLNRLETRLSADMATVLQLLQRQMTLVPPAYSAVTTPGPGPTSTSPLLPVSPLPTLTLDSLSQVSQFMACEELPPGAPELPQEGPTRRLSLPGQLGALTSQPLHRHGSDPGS

SMILES | hERG current change (%, negative = inhibition) at 10uM
CCOc1ccc(NC(=O)CSc2nc3[nH]ncc3c(=O)n2-c2ccccc2OC)cc1 | 3.8%
CN(C)c1nnnn1-c1ccc(OC(F)(F)F)cc1 | -9.73%
COc1ccc(-n2nnnc2S(=O)(=O)CC(=O)N2CCCCC2)cc1 | -15.2%
CCC(=NCc1cccnc1)c1c(O)n(C2CCCCC2)c(=O)[nH]c1=O | -44.9%
O=C(Nc1ccccc1)c1ccc(NCCN2CCOCC2)c(S(=O)(=O)N2CCOCC2)c1 | -32.8%
COC(=O)C1=C(C)OC(N)=C(C#N)C1c1ccccc1F (centres unmarked) | -8.34%
CCOCC(=O)Nc1cccc(-c2nc3cccnc3s2)c1C | 1.76%
Cc1cc(C(=O)N/N=C/C=C/c2ccccc2[N+](=O)[O-])c(C)o1 | 6.36%
COC(=O)C1(CC2CC(c3ccc(Cl)cc3)=NO2)CCN(C(=O)OC(C)(C)C)CC1 (centres unmarked) | -10.3%
O=C1C(=C2SCCCS2)CC/C1=C\c1ccc(F)cc1 | 15%
Cc1cccnc1NC(=O)c1cccc(S(=O)(=O)N2CCCc3ccccc32)c1 | -24.3%
Cc1ccc(CN2CCNC(=O)C2CC(=O)NCc2cc(C)n(C)n2)cc1 (centres unmarked) | 5.76%
COCc1nnc(NC(=O)c2ccc(Cl)cc2[N+](=O)[O-])s1 | 15.5%
O=C(CNS(=O)(=O)c1c(Cl)cccc1Cl)OCC(=O)N1CCN(c2ccccc2)CC1 | -29.5%
CCOc1ccc(CC(=N)C2=C(O)CC(C)(C)CC2=O)cc1OCC | -7.44%
O=C(C1CCN(S(=O)(=O)c2ccccc2)CC1)N1CCC2(CC1)OCCO2 | 13.2%
Cc1nn(C)c(Oc2ccccc2)c1CCNC(=O)C(C)(C)C | 9.33%
COc1ccc(OC)c(S(=O)(=O)NC(N)=NCCc2ccccc2OC)c1 | 9.89%
COc1ccccc1-c1nc(NC(C)=O)n[nH]1 | 16.4%
O=C(c1[nH]nc2c1CCc1ccccc1-2)N1CCN(Cc2ccc3c(c2)OCO3)CC1 | -26.9%
COCCN(C(=O)CCc1nnc(Cc2c[nH]c3ccccc23)o1)C(C)C | 10.5%
O=C(OCc1cncs1)c1ccccc1Cl | 6.6%
Fc1ccccc1-c1n[nH]c(=S)n1CC1CCCO1 (centres unmarked) | 17.5%

SMILES | hERG current change (%, negative = inhibition) at 10uM
COc1ccc(Br)cc1C(=O)Nc1ccc(C(=O)O)cc1 | 11.7%
COc1cc(NC(=O)c2cc([N+](=O)[O-])ccc2N2CCOCC2)ccc1NC(=O)c1ccco1 | -6.66%
Cc1cc2oc(=O)cc(-c3cc4ccccc4o3)c2cc1OC(=O)N(C)C | 12.7%
c1ccc(-c2csc3ncnc(N4CCN(Cc5ccc6c(c5)OCO6)CC4)c23)cc1 | -57.6%
Fc1ccc(CSc2nc3ccccc3[nH]2)cc1 | -20.9%
CCC(Sc1nc(-c2ccccc2)cc(=O)[nH]1)C(=O)O (centres unmarked) | 2.59%
CN(C1CCS(=O)(=O)C1)S(=O)(=O)c1ccccc1 (centres unmarked) | 12.8%
CCOc1ccccc1N1CC(O)=C(c2nc3ccccc3s2)C1=N | -8.81%
COc1ccccc1NC(=O)CSc1nc2ccccc2c(=O)n1CC1CCCO1 (centres unmarked) | 2.49%
FC(F)(F)c1ccc(N2CCN(c3cc(-c4ccccc4)nc4ncnn34)CC2)nc1 | -65.1%
O=C(O)c1ccccc1-n1cccc1C(=O)O | 15.4%
Cc1[nH]nc(-c2ccc(O)cc2O)c1Oc1ccccc1 | -29.9%
Cc1ccc(Nc2ncnc(-n3cccc3)n2)cc1Cl | 8.65%
Cc1ccc(CN2CC(C(=O)N3CC(C)CC(C)C3)CC2=O)cc1 (centres unmarked) | -6.13%
Cc1sc(NC(=O)CCCC(=O)O)c(C(N)=O)c1-c1ccccc1 | 15.8%
Cc1ccc(C(=O)Nc2cc3ccccc3oc2=O)cc1 | 9.74%
O=C1CCCCN1CC(=O)N1CCCC(Nc2ccc(F)c(F)c2)C1 (centres unmarked) | -0.0134%
COc1ccc(NC(=O)c2cccc(C(=O)Nc3ccc(OC)cc3)n2)cc1 | 8.48%
Cc1ccc(S(=O)(=O)NCCc2cccs2)cc1 | -15.3%
CC1C(=O)Nc2ccc(S(=O)(=O)N3CCc4ccccc4C3)cc2NC1=O (centres unmarked) | -11.3%
CC(C)NS(=O)(=O)c1ccc(OCC(=O)NC(C)c2ccccc2)cc1 (centres unmarked) | -18.3%
O=C(CCC(=O)N1CCN(C2CCCC2)CC1)Nc1nnc(C(F)(F)F)s1 | 5.49%
O=C(Nc1ccccc1)N1CCN(c2nc(-c3ccccc3)ns2)CC1 | -27.8%

SMILES | hERG current change (%, negative = inhibition) at 10uM
CC(Sc1nnnn1C1CC1)C(=O)N1CC(=O)Nc2ccccc21 (centres unmarked) | 20.2%
COC(=O)CCCC[C@H]1SC[C@H]2NC(=O)N[C@]21O | 3.84%
COc1cccc(-n2nnc3c(=O)n(Cc4ccc(Br)cc4)cnc32)c1 | 1.87%
CCOc1c2ccc(C(=O)NCC34CC5CC(CC(C5)C3)C4)cc2nn1CC | -22.9%
COc1ccc(Cn2c(-c3ccc(Cl)cc3)c[n+]3ccccc23)cc1.[Br-] | -29%
Cn1c(=O)cc(OCC(=O)NCCCN2CCN(c3ccccc3F)CC2)c2ccccc21 | -45.4%
CCOc1nc(OCC)nc(N2CCC(C)CC2)n1 | -14.6%
CCCCN(C(=O)C1CCC1)c1c(N)n(CC(C)C)c(=O)[nH]c1=O | 1.74%
O=S(=O)(CCCc1ccccc1)c1ncn[nH]1 | 12.5%
O=C(COc1ncnc2c1cnn2-c1ccccc1)Nc1ccc(S(=O)(=O)N2CCCCC2)cc1 | -3.63%
CCCCCCCCCCOC(=O)Cn1c(COc2ccc(C)cc2)[n+](C)c2ccccc21.[Cl-] | -74.9%
CC1CCCN(C(c2ccccc2)c2sc3ncnn3c2O)C1 (centres unmarked) | 9.19%
O=C(Nc1nnc(C(F)(F)F)s1)c1ccc(N2C(=O)C3C4C=CC(C4)C3C2=O)cc1 (centres unmarked) | 5.74%
O=C(CSc1nnc(NC(=O)c2ccccc2F)s1)NCC1CCCO1 (centres unmarked) | 4.91%
COc1ccc(-n2c(=S)[nH]c3cc(C(=O)N4CCN(c5ccccc5)CC4)ccc3c2=O)c(OC)c1 | 16.3%
CCOc1ccc(NC(=O)CN(C)C(=O)CCCOc2ccc(Cl)c(C)c2)cc1OCC | 16.2%
CC(OC(=O)c1cccc(-n2cnnn2)c1)C(=O)Nc1ccc(N(C)C)cc1 (centres unmarked) | 6.86%
N#CC1=C(N)Oc2n[nH]c(-c3ccccc3)c2C1c1ccncc1 (centres unmarked) | 21.3%
COc1ccc(/C=c2\s/c(=C/C(=O)c3ccc(C)cc3)[nH]c2=O)cc1OC | 20.8%
CCOC(=O)c1nnc(-c2ccccc2)o1 | -3.35%
O=C(Nc1ccc(C(=O)N2CCCC2)cc1)c1ccccc1Br | 19.8%
CCN1C(=O)N(CC)C2C1N(C(C)=O)C(=O)N2C(C)=O (centres unmarked) | -6.42%
CC1(C)CC(N=C2C([N+](=O)[O-])=CC=C3C2=NC2(CCCCC2)N3O)CC(C)(C)N1 | 9.59%

SMILES | hERG current change (%, negative = inhibition) at 10uM
COC(=O)c1sc2nc(C)nc(SCC(=O)Nc3sccc3C(N)=O)c2c1C | 2.33%
COc1ccc(NC(=O)CCc2ccccc2)cc1S(=O)(=O)N1CCOCC1 | -0.588%
CCN1C(=O)/C(=C2\SC(=S)N(NC(=O)c3ccccc3O)C2=O)c2ccccc21 | 4.56%
O=C1NCCCC2c3c(cc(Br)c(O)c3Br)OC12N1CCOCC1 (centres unmarked) | -11.7%
COc1cc2c(cc1OC)C(c1ccc(SC)cc1)CC(=O)N2 (centres unmarked) | 6.96%
Cc1c(C)c(C)c(S(=O)(=O)Nc2ccc3[nH]c(=O)[nH]c3c2)c(C)c1C | 22.1%
COc1ccc(Cl)cc1CN1C(=O)NC2(CCCCCC2)C1=O | 8.55%
COc1ccc(C(=O)N2CCN(c3ncccn3)CC2)cc1[N+](=O)[O-] | -2.35%
O=[N+]([O-])c1cc(S(=O)(=O)N2CCCCCC2)ccc1F | 5.94%
O=S(=O)(Nc1cccnc1)c1ccc(Cl)cc1 | 9.57%
COc1cccc(N2CCN(C(=O)CN(c3ccc(C)cc3)S(=O)(=O)c3c(C)n[nH]c3C)CC2)c1 | -11.8%
O=C(CSc1nc(-c2ccc(F)cc2)cc(C(F)(F)F)n1)NCCN1CCOCC1 | -3.59%
COCCNc1oc(COc2cccc(C)c2)nc1C#N | -14.3%
Cc1cnc(C(=O)NC(C)CCc2ccccc2)cn1 (centres unmarked) | 24%
COc1ccc(NC(=S)N2CCC(NC(=O)C3CCCCC3)CC2)cc1 | 16.7%
O=C(CCc1nc2ccccc2c(=O)[nH]1)Nc1ccccc1N1CCCC1 | -6.19%
COc1ccccc1C(=O)NCCCn1cc(Br)c(C)n1 | -13.5%
CCCOc1ccc(Cl)cc1Nc1nc(NCCO)nc(N2CCCC2)n1 | 19.7%
O=C(CCC1CCCC1)NNC(=O)c1cc2ccccc2cc1O | -0.202%
NNC(=O)c1n[nH]c2c1CC(C1CCCCC1)CC2 (centres unmarked) | 10.8%

— PMC4336329 (PLoS ONE, 2015)
